The supplement of paper PMC3334620
In all, about 33,000 sequences were measured (“E-score (-0.5 to 0.5)”: median about -0.016, highest 2% from about 0.32 on). The list shows a part of the results.

Biological target: T1, Stp1 (UniProt B3LFK1)
T1 sequence: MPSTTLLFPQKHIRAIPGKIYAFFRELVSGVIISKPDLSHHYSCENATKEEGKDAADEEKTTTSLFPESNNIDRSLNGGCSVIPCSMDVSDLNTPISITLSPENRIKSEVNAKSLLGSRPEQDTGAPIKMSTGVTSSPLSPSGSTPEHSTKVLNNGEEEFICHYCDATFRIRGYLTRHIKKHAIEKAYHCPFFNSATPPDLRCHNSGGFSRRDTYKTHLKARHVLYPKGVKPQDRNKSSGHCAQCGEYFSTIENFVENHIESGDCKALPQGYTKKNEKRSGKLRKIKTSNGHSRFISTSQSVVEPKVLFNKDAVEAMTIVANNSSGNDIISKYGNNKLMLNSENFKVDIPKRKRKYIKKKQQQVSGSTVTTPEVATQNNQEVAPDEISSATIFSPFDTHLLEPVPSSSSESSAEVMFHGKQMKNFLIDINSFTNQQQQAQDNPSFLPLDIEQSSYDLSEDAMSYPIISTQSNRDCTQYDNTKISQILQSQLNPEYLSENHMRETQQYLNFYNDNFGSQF
Experiment: PBM E-score (8-mer binding enrichment) (E-score (-0.5 to 0.5)); higher = stronger / more preferred TF binding; most listed sequences are background and not binding sites
Settings: protein concentration: 200 nM; construct: GST-full length
How it was run: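 Universal all-10-mer Agilent arrays, fresh or stripped once, were converted to double-stranded form by primer extension. GST-tagged yeast transcription factors from PURExpress in vitro transcription/translation, full-length or DNA-binding domain only, were applied at about 100-200 nM and detected with fluorescent anti-GST. After masliner normalisation, the Universal PBM Analysis Suite scored each ungapped eight-base word together with its reverse complement by E-score.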

First: GTCATCAA
Second: AACTCAAC
The “PBM E-score” value of the first is lower: -0.102 for the first, -0.0044 for the second.

Going from GCCAGGCC to CAAATGAC, the “PBM E-score” value rises from -0.294 to -0.06.

Compared with AATAGCAC, GCGTAGTA is higher in “PBM E-score” value: -0.165 for the first, -0.101 for the second.

First: ATTTTCGC
Second: CTGGCACA
The “PBM E-score” value of the first is higher: 0.26 for the first, -0.187 for the second.

Compared with ATGGGATG, ACCTAAGG is higher in “PBM E-score” value: -0.138 for the first, -0.112 for the second.

First: ATTTAACC
Second: GTTTAGCA
The “PBM E-score” value of the first is lower: -0.101 for the first, -0.0167 for the second.

Going from AGCAAACG to ATGAGCGA, the “PBM E-score” value rises from -0.0548 to 0.0356.

First: TCTACAGA
Second: CACGTTGA
The “PBM E-score” value of the first is lower: 0.0682 for the first, 0.138 for the second.

Going from GGTTCGGA to GCGGCACA, the “PBM E-score” value rises from -0.131 to 0.463.

First: GACCCGGC
Second: ACCTCGGA
The “PBM E-score” value of the first is lower: -0.102 for the first, -0.0499 for the second.

Compared with AAGCGAGA, CCAAGAGA is higher in “PBM E-score” value: -0.176 for the first, -0.104 for the second.

First: AGATGCGA
Second: CTCCGGGA
The “PBM E-score” value of the first is higher: -0.0861 for the first, -0.313 for the second.

First: CCAGTGGA
Second: CCGACAAG
The “PBM E-score” value of the first is lower: -0.202 for the first, -0.00255 for the second.

Going from CCCTCTCC to ATATGTGA, the “PBM E-score” value rises from -0.29 to 0.0699.

First: AGTTGAAA
Second: CGTTTTGA
The “PBM E-score” value of the first is lower: 0.103 for the first, 0.204 for the second.

First: CATCTGCG
Second: GTTGAAAC
The “PBM E-score” value of the first is higher: 0.0364 for the first, 0.0158 for the second.

Compared with TGGCACAA, ATAACTGA is higher in “PBM E-score” value: 0.0994 for the first, 0.152 for the second.

First: CTGTGCGC
Second: TACCTAAA
The “PBM E-score” value of the first is lower: -0.0119 for the first, 0.0628 for the second.

First: GGGCGGAC
Second: AGGTTCAA
The “PBM E-score” value of the first is lower: -0.171 for the first, 0.0944 for the second.

First: ATAGTAGG
Second: CTTCACAC
The “PBM E-score” value of the first is higher: 0.0599 for the first, 0.0403 for the second.

Going from AAGAAGCC to CGAGATTA, the “PBM E-score” value falls from 0.232 to 0.214.

First: TCGTGGAA
Second: AGACTCTC
The “PBM E-score” value of the first is higher: 0.0221 for the first, -0.235 for the second.

First: CCATTAAC
Second: ACATTACT
The “PBM E-score” value of the first is lower: 0.0496 for the first, 0.0555 for the second.

First: GAGTAATA
Second: CCAGAAGC
The “PBM E-score” value of the first is higher: 0.131 for the first, -0.16 for the second.

First: TAATCTAA
Second: GATACGGC
The “PBM E-score” value of the first is lower: 0.145 for the first, 0.463 for the second.

First: CTAATACA
Second: GCACACGC
The “PBM E-score” value of the first is lower: 0.00443 for the first, 0.128 for the second.

Compared with AAATAACA, AAGACCCA is lower in “PBM E-score” value: 0.197 for the first, -0.363 for the second.

Compared with AGTGGGAT, CCTTCCCA is higher in “PBM E-score” value: -0.0645 for the first, 0.00934 for the second.

Compared with CGGTGAAG, ACGTCAGA is lower in “PBM E-score” value: 0.011 for the first, -0.183 for the second.

Going from CTGGACTC to AAGCCTTC, the “PBM E-score” value falls from -0.0665 to -0.101.

Going from GTATCATA to CCATCAAA, the “PBM E-score” value falls from 0.29 to 0.0475.

Compared with CAGATCAA, GCCAAGCA is lower in “PBM E-score” value: -0.151 for the first, -0.215 for the second.

Compared with ATAGCCCC, AATTTTAG is higher in “PBM E-score” value: -0.275 for the first, -0.0369 for the second.

Compared with AGTGCGGC, ATACGCTC is lower in “PBM E-score” value: 0.379 for the first, 0.0237 for the second.

Compared with CTACTCTC, GGCCTATA is lower in “PBM E-score” value: -0.215 for the first, -0.302 for the second.

Going from CCATCGCA to AGAAATTG, the “PBM E-score” value rises from 0.0484 to 0.171.

Compared with ACCTTCAA, ACGAGCAC is higher in “PBM E-score” value: -0.118 for the first, 0.113 for the second.

Compared with CAAGTCGC, CCATCTCA is higher in “PBM E-score” value: -0.159 for the first, 0.087 for the second.

Compared with CGGGTACA, CGCCCGCG is higher in “PBM E-score” value: -0.00526 for the first, 0.14 for the second.

Compared with CACCGTAG, ACTCCTAT is higher in “PBM E-score” value: -0.0209 for the first, -0.00224 for the second.

Going from CCTTTCGC to CGTTGGTC, the “PBM E-score” value falls from 0.0733 to -0.0686.

First: CACGGGCC
Second: TAGAACAA
The “PBM E-score” value of the first is higher: -0.0191 for the first, -0.14 for the second.

First: CACGACTA
Second: GCTAGCCA
The “PBM E-score” value of the first is higher: -0.18 for the first, -0.279 for the second.

Compared with GTTACCGA, CTCTATGC is higher in “PBM E-score” value: -0.131 for the first, -0.00112 for the second.

First: GCAACTAC
Second: CGAGGAGC
The “PBM E-score” value of the first is higher: -0.00806 for the first, -0.0887 for the second.

Going from TCCAGCGA to AACAACTA, the “PBM E-score” value rises from -0.151 to 0.0535.

Going from CACCTCCG to CACTAGAA, the “PBM E-score” value rises from -0.0858 to -0.028.

Compared with CGAATTTC, CCTTTGGC is lower in “PBM E-score” value: 0.134 for the first, -0.137 for the second.

First: ATCTAGCG
Second: AGTGGACA
The “PBM E-score” value of the first is higher: -0.0611 for the first, -0.157 for the second.

Going from AGTTCAGG to CGGGATAA, the “PBM E-score” value rises from -0.268 to -0.021.

Going from CCGTGGAC to CACAAACG, the “PBM E-score” value rises from 0.192 to 0.207.

First: GTCCGAAC
Second: AGGGGCAC
The “PBM E-score” value of the first is higher: 0.00676 for the first, -0.0132 for the second.

Compared with CGCGTATA, CGGATTAA is lower in “PBM E-score” value: 0.0732 for the first, 0.0648 for the second.

First: AGGTGCGC
Second: ATGTTGTC
The “PBM E-score” value of the first is lower: -0.0265 for the first, 0.119 for the second.

Going from CGAACCCC to AGACACAC, the “PBM E-score” value rises from -0.24 to -0.0769.

Compared with ATAGCATG, GGATAAAA is higher in “PBM E-score” value: -0.16 for the first, 0.137 for the second.

First: CCACAAGA
Second: CACGACAC
The “PBM E-score” value of the first is lower: -0.122 for the first, 0.117 for the second.

Going from CCGGCGGC to ATCGTATG, the “PBM E-score” value rises from 0.152 to 0.195.

Going from CTATAAAA to TAGACCGA, the “PBM E-score” value falls from 0.0322 to -0.165.

First: CCTCATTC
Second: ATGCGTCA
The “PBM E-score” value of the first is lower: -0.0483 for the first, -0.00827 for the second.

First: GCCTAATA
Second: GCGACAAC
The “PBM E-score” value of the first is lower: 0.0922 for the first, 0.172 for the second.

First: AAGTAACC
Second: GTACTCCA
The “PBM E-score” value of the first is lower: -0.0573 for the first, -0.0272 for the second.

First: GAATTCTA
Second: GAAGTTCC
The “PBM E-score” value of the first is higher: 0.236 for the first, -0.141 for the second.

Compared with CCAACGAA, CTGAACCC is lower in “PBM E-score” value: 0.0401 for the first, -0.0278 for the second.

Compared with GCTAAGCC, GTGCCATA is higher in “PBM E-score” value: 0.03 for the first, 0.175 for the second.

Going from GATGATGC to TAACGCAA, the “PBM E-score” value rises from 0.115 to 0.189.

Compared with CCGCGTAG, CCGTCCAG is lower in “PBM E-score” value: 0.25 for the first, 0.0807 for the second.

Going from GATCCCCC to GGAACCAA, the “PBM E-score” value rises from -0.411 to -0.0547.

Compared with AAGAGTGG, ACACAGGC is higher in “PBM E-score” value: -0.267 for the first, -0.0347 for the second.

Compared with GAACGTTA, GGATACTA is lower in “PBM E-score” value: 0.0285 for the first, -0.0281 for the second.

Compared with ACGTCTAA, CCTTTTCG is lower in “PBM E-score” value: 0.162 for the first, 0.146 for the second.

Compared with CCGTTCAG, AGTTGCCG is higher in “PBM E-score” value: 0.271 for the first, 0.288 for the second.

Going from CTTAGGCC to ATCTAAAG, the “PBM E-score” value rises from -0.0964 to -0.0363.

Compared with AATTATTA, CTCCCCAA is lower in “PBM E-score” value: 0.111 for the first, -0.229 for the second.

Compared with GTTCCCAA, CCGATATA is higher in “PBM E-score” value: -0.113 for the first, 0.0401 for the second.

Compared with CTCCTCAA, CGCTAGCC is lower in “PBM E-score” value: -0.139 for the first, -0.19 for the second.

First: CACGGTAA
Second: GCGCATAC
The “PBM E-score” value of the first is higher: 0.139 for the first, 0.0533 for the second.

Going from GGTCTAGA to CATTACGG, the “PBM E-score” value rises from -0.153 to 0.0818.

Compared with GCGCAACC, CGCAACAC is higher in “PBM E-score” value: -0.0997 for the first, 0.107 for the second.

Going from CTCGACAC to CTAGGGAA, the “PBM E-score” value falls from 0.0218 to -0.0313.

First: CTATTGGA
Second: ATAATATC
The “PBM E-score” value of the first is lower: 0.0629 for the first, 0.203 for the second.

Compared with GACTTTGA, CCCAGTGA is lower in “PBM E-score” value: -0.0498 for the first, -0.0839 for the second.

Compared with AAGTCGGG, CTGTATTA is higher in “PBM E-score” value: -0.235 for the first, 0.103 for the second.

Going from AGTCTCAT to CACATGTA, the “PBM E-score” value rises from -0.157 to 0.127.

Compared with CCCAGTTA, ACCGCCCG is higher in “PBM E-score” value: -0.23 for the first, -0.195 for the second.

Compared with CGTTGGTA, TATTAGCA is lower in “PBM E-score” value: 0.0734 for the first, 0.0213 for the second.
